Source: ChEMBL document CHEMBL1156829
In all, about 5,400 compounds were measured (“IFI”: median about 2, highest 2% from about 22 on). Some of the results follow.

Assay: NOVARTIS: Inhibition Frequency Index (IFI) - the number of HTS assays where a compound showed > 50% inhibition/induction, expressed as a percentage of the number of assays in which the compound was tested.
Format: functional

SMILES | IFI [%]
Cc1ccccc1N(CC(=O)NCC1CCCO1)C(=O)c1snc(C(N)=O)c1N (stereo not given) | 3.74
O=C1C2=C(Nc3ccccc3SC2c2ccc(OCc3ccccc3)cc2)c2ccccc21 (stereo not given) | 18.2
Cc1cc(I)ccc1NC(=O)CNC(=O)OCc1ccccc1 | 0
COc1ccc(C2C(C(=O)Nc3cc(C)on3)c3ccccc3C(=O)N2C2CCCCC2)cc1 (stereo not given) | 0
CCN(C(C)=O)C1=C(N2CCOCC2)C(=O)c2ccccc2C1=O | 0
O=S(=O)(NC1=CC2C(=Nc3ccc(NS(=O)(=O)c4ccc(Br)cc4)cc3N2c2ccccc2)C=C1)c1ccc(Br)cc1 (stereo not given) | 7.14
CCOC(=O)c1[nH]c(C)c(Cc2ccc(OCC)cc2)c1C | 1.51
c1cn2c(-c3ccc(N4CCOCC4)cc3)cnc2c(NCc2ccc3c(c2)OCO3)n1 | 0
CCCSc1nc(N)c2c3c(sc2n1)CN(CCC)CC3 | 12
CCOC(=O)c1c(C)n(-c2ccccc2)c2ccc(OC(=O)C3CC3)cc12 | 0
Cc1cc(OC(C)C(=O)N2CCc3ccccc32)ccc1Cl (stereo not given) | 0
c1ccc(CCCNc2ccnc3cc4ccccc4cc23)cc1 | 13.6
O=C(Nc1ccc(-c2nc3ccccc3[nH]2)cc1)c1ccccc1Oc1ccccc1 | 6.74
Cc1nc2cc(-c3ccc(F)cc3)nn2c(NCCCn2ccnc2)c1C | 0
CCOC(=O)c1cnc2ccc(OC)cc2c1Cl | 0
COC(=O)c1ccc(C=NNc2cc(C)nc3ccc(OC)cc23)cc1 | 0
CCOC(=O)C1=C(C)NC2=C(C(=O)CC(c3ccc(OC)c(OC)c3)C2)C1c1ccc(Cl)c(Cl)c1 (stereo not given) | 5.95
CCCCCCCCC(=O)N(C)CCCNc1ccnc2cc(Cl)ccc12 | 5.38
CCCN(CCC)S(=O)(=O)c1ccc(C(=O)Nc2ccccc2C(=O)Oc2ccc3c(c2)c(C(=O)OCC)c(C)n3-c2ccccc2)cc1 | 5.56
CCC(C)NC(=O)c1nn(-c2ccc(OC)cc2)c(=O)c2ccccc12 (stereo not given) | 0
CCCOc1ccc(C(=O)Nc2cccc(-c3nc4ncccc4o3)c2)cc1 | 1.16
CCc1c(C(=O)N2CCN(C(=O)CCl)C(C)C2)cnn1-c1nc(-c2ccc(Br)cc2)cs1 (stereo not given) | 4.76
CC(C)(C)NC(=S)Nc1cccc(Cl)c1Cl | 2.27
CCCCN(CCCC)CC(O)c1cc(-c2ccc(Cl)cc2)nc2cc(Cl)ccc12 (stereo not given) | 3.28
Oc1ccc(Br)cc1C=NNc1nc2ccccc2[nH]1 | 1.43

SMILES | IFI [%]
COc1ccc(N)cc1NC(=O)c1ccc(Cl)cc1Cl | 1.51
CCOc1ccc(CN(C(=O)C(C)(C)CCl)C(C)CCCN(CC)CC)cc1 (stereo not given) | 1.83
CCCCCCN(C(=O)c1ccc(CCCCC)cc1)C(CC)c1nc2ccccc2c(=O)n1-c1ccccc1OC (stereo not given) | 1.94
COc1cc(CN2CCN(c3ccccn3)CC2)cc(I)c1O | 0
COc1ccc(-c2cc(C(F)(F)F)n3ncc(C(=O)Nc4cc(C)ccc4O)c3n2)cc1OC | 3.45
Cc1sc2ncnc(Nc3ccncc3)c2c1C | 2.7
Cc1ccc(C)c(Nc2nc(NCC3CCCO3)c3ccccc3n2)c1 (stereo not given) | 2.98
Nc1cc(OC(=O)c2ccccc2)nn1S(=O)(=O)c1ccc(Cl)cc1 | 0
CCOC(=O)c1c(C)oc2c1c1c(c3ccccc32)OCN(C2CCCC2)C1 | 0
N#Cc1ccccc1CN1CCC(Oc2cccc3onc(N)c23)CC1 | 4.17
Oc1ccc(-c2ccnc3cc(Cl)ccc23)cc1CNC1CCCCC1 | 4.31
Oc1ccc(-c2cncc(NCc3ccc4c(c3)OCO4)c2)cc1 | 3.33
Cc1cccc(NC(=O)c2sc3nc4c(c(-c5cccs5)c3c2N)CCCCC4)c1 | 3.8
CCCCCCC[N+](CC)(CC)CCCCc1ccc(Cl)cc1 | 4.51
C(#Cc1ccccc1)C[N+]1(CC#Cc2ccc(C#CC[N+]3(CC#Cc4ccccc4)CCCCC3)cc2)CCCCC1 | 14.3
O=C(Nc1cc(Oc2ccc(F)cc2)cc([N+](=O)[O-])c1)c1nc2nc(-c3ccccc3)cc(C(F)(F)F)n2n1 | 0
CCN(CC)c1nc(S)nc(NC(C)(C)C)n1 | 0
CN(C)CCN1CCN(c2ccnc3cc4ccccc4cc23)CC1 | 5.8
COc1ccccc1N1CCN(c2ccc(NC(=O)/C=C/c3ccc([N+](=O)[O-])cc3)cc2C(=O)NCCCN(C)C)CC1 | 10.1
CCN1CCCC1CNc1ncnc2c1[nH]c1ccc(C)cc12 (stereo not given) | 8
O=[N+]([O-])c1ccc2nc(Nc3ccc(Cl)c(Cl)c3)c(Nc3ccc(Cl)c(Cl)c3)nc2c1 | 0
O=C(C[n+]1cc(-c2ccccc2)n2c1CCC2)c1ccc(C2CCCCC2)cc1 | 12.5
COCCN(CC(=O)Nc1cc(C(C)(C)C)nn1-c1ccc(C)cc1)C(=O)COCc1ccccc1 | 1.87
COc1ccc(NC(=O)c2c(Cl)nc(Cl)c([N+](=O)[O-])c2C)cc1 | 7.69
CCC(Sc1nc(C)cc(-c2ccccc2)n1)C(=O)Nc1cccc2ccccc12 (stereo not given) | 0
